This is one part of the list. Sequences were assembled here from the parent chain. Values near 0.05 are background.
B1: TEV protease; numbered along this chain (parent)
chain: MGESLFKGPRDYNPISSSICHLTNESDGHTTSLYGIGFGPFIITNKHLFRRNNGTLVVQSLHGVFKVKDTTTLQQHLVDGRDMIIIRMPKDFPPFPQKLKFREPQREERICLVTTNFQTKSMSSMVSDTSCTFPSGDGIFWKHWIQTKDGQCGSPLVSTRDGFIVGIHSASNFTNTNNYFTSVPKNFMELLTNQEAQQWVSGWRLNADSVLWGGHKVFMVKPEEPFQPVKEATQL

Variants of: B1
Assay: raw area under fraction-flipped curve 0-4 h after induction (AUC4h, not background-subtracted), DNA-recorder readout of cleavage of the substrate (dimensionless); higher = more cleavage of the substrate by the protease variant
Details: temperature: 34 °C; time window: 0-4 h after rhamnose induction
Description: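 In vivo DNA recorder in E. coli TOP10(DE3) ΔrhaA at 34 °C. Each TEVp single-site mutant (parent TEVp 0) is paired with a single-site variant of the 7-mer TEVs (canonical ENLYFQ|S). The substrate sits between flexible linkers in a Bxb1-sfGFP-TEVs-SsrA fusion, so cleavage stabilises Bxb1 and speeds flipping of a recombination array, read by NGS. The value is the raw area under the fraction-flipped curve over 0-4 h after rhamnose induction (AUC4h), with ≥20 reads per time point. It is not background-subtracted; inactive controls average about 0.047.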
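Also: Bxb1 expression induced with 0.2% (w/v) L-rhamnose at OD600 near 0.5, cultures sampled hourly, flipped fraction per protease–substrate barcode pair counted by paired-end Illumina sequencing.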

Variant	area with substrate ENLYFQC	area with substrate ENLYFQH	area with substrate ENLYFQN	area with substrate ENLYFQR	area with substrate ENLYFQS	area with substrate ENLYFQT	area with substrate ENLYFQV	area with substrate ENLYFQY	area with substrate ENLYFQD	area with substrate ENLYFQE	area with substrate ENLYFQF	area with substrate ENLYFQG	area with substrate ENLYFQI	area with substrate ENLYFQK	area with substrate ENLYFQM	area with substrate ENLYFQQ	area with substrate ENLYFQW	area with substrate ENLYFQL	area with substrate ENLYFQP
G54F	0.0639	0.0685	0.0652	0.05	0.075	0.0595	0.0382	0.0478											
D27Y	0.127	0.0636	0.0649	0.052	0.089	0.0578	0.0511	0.0693	0.0699	0.0539	0.0863	0.0885	0.0603	0.0571	0.0808	0.0627	0.0635		
R50Q	0.148	0.097		0.0502	0.117	0.0732		0.0603	0.0825		0.0771	0.124	0.0777	0.0811	0.0978		0.0827	0.0643	0.0595
T181R	0.0503		0.0426	0.0598	0.0521	0.0485	0.0536	0.0499						0.0411				0.0471	
N193W	0.0843	0.0629		0.0433	0.0755	0.0574						0.0627	0.052			0.0689		0.0626	
I85G	0.0482		0.0503	0.0517	0.0527	0.0559				0.0638	0.0511	0.0646	0.0382	0.0611			0.0513	0.0412	0.0513
T115S	0.0815	0.104	0.0852		0.109	0.0505		0.103		0.0658		0.102		0.0701	0.0735		0.0603	0.0652	0.068
N186I	0.094	0.069		0.0562	0.0786				0.0728			0.0644						0.0334	0.057
S26M	0.0873		0.0663	0.057	0.0767	0.0657	0.0577	0.0859	0.0624	0.0602	0.0717	0.149	0.0507		0.0815		0.0556		0.0658
S123F	0.111	0.085	0.0856	0.0549	0.102	0.0697			0.0796		0.0084	0.144	0.0671	0.0717	0.103		0.0812	0.0649	
I42E	0.0745	0.0414	0.0214	0.0392	0.0407	0.0418		0.0377	0.0467		0.044	0.0476	0.0438	0.0638	0.064	0.0559	0.044	0.0388	0.0244
N172K	0.0483	0.0947	0.053		0.061	0.0578		0.0437				0.0655		0.0517	0.0529		0.066	0.0662	0.0361
K120M	0.112	0.0712	0.0607	0.0595	0.0987			0.072	0.0688		0.0758	0.11	0.0469	0.063	0.0697		0.0677	0.0857	0.066
I164R	0.0543	0.0512	0.0296	0.0515	0.0545	0.0551	0.055	0.0548	0.0597		0.0518		0.0377	0.0535		0.0439	0.0581	0.0238	
I145H	0.0888	0.0838		0.0651	0.0899	0.0879	0.06	0.0788	0.0784					0.0525	0.121		0.0615	0.063	
E195G	0.135	0.0656	0.0873	0.0684	0.0989	0.0633	0.0403	0.0746	0.067			0.123	0.0606	0.0545	0.0859			0.0552	
H143I	0.0532			0.0573	0.0649							0.0491		0.0621	0.0705			0.0545	
E108C	0.0759			0.0627	0.0736	0.0654	0.0407					0.0672	0.048				0.0566	0.104	
D161P	0.0491			0.031	0.0527		0.0541					0.0443		0.0565	0.0399		0.0479		
D149C	0.085	0.0675	0.0738	0.0557	0.104	0.0657		0.0631						0.0668	0.0608			0.0594	
L190Q	0.0941			0.0646	0.0908				0.056			0.0588	0.0687	0.0598	0.0627		0.0629	0.109	0.0543
L190C	0.11				0.105	0.0574	0.0668	0.076		0.0589	0.104			0.0615	0.0939			0.068	
T71M	0.089	0.084		0.0561	0.0933		0.057	0.0381	0.0352				0.0583		0.0839	0.0737	0.0861		
T71I	0.119			0.067	0.091	0.0571							0.0676	0.063	0.0794	0.0676	0.0659	0.0465	
G80Y	0.141				0.106		0.0611	0.0732	0.0544			0.0947		0.0657	0.086	0.0738	0.0856		
D128P	0.129				0.121	0.0766						0.114		0.0604		0.0763	0.032	0.0634	
R51G	0.112		0.0947	0.0646	0.113		0.0616				0.0882	0.0992			0.0872	0.0875	0.0758	0.0626	
K216W	0.0901	0.046	0.0594	0.0589	0.0835				0.0546		0.0633			0.0548				0.0555	0.0553
Y179V	0.0633	0.0629	0.0872	0.063	0.0634			0.0597				0.0628			0.0596	0.0482		0.0651	
Y179N	0.0788				0.0576	0.0531				0.0495							0.0474	0.0656	

Reference: the supplement of paper PMC12217912
